Experimental findings from the supplement of paper PMC8183993 are described below.

Several values for one entry are separate records, joined by “and”; a condition that tells them apart may be missing. Equal entries are not always repeated. Structures can show the parent of a compound that is named as a salt. ± gives the standard deviation of the averaged measurements. In all, about 3,200 compounds were measured (“nuclei count (viability) relative to DMSO”: median about 99, lowest 2% from about 16 on). Some of the results follow.

For the assay, the system named is U2OS. The assay is described as follows: nuclei count (viability) relative to DMSO (% of DMSO); higher = more viable cells. Particulars: 10 µM; 24 h. On the procedure: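 Primary image-based screen in U2OS cells: compounds at 10 uM for 24 h, then a 1 h o-propargyl-puromycin (OPP) pulse, click labelling, and high-throughput microscopy. Mean cytoplasmic OPP intensity and nuclei count were normalised to DMSO wells within each plate (DMSO = 100) and averaged over triplicate plates.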
`CC(C)(C)c1cc(/C=C(\C#N)C(N)=S)cc(C(C)(C)C)c1O` [Tyrphostin AG 879 (AG 879)] registered a nuclei count of 79.3.
As to `COC1=CC(=O)C[C@@H](C)[C@]12Oc1c(Cl)c(OC)cc(OC)c1C2=O` [Griseofulvin], the nuclei count worked out at 81.4.
Molecule `CCC(=O)NCC[C@@H]1CCc2ccc3c(c21)CCO3` [Ramelteon (TAK-375)] returned a nuclei count of 116.
The molecule `O=C(Nc1ccc(C(F)(F)F)cn1)N1CCN(c2ncccc2C(F)(F)F)CC1` gave a nuclei count of 100.
In the case of `COC(=O)Nc1nc2cc(C(=O)c3ccc(F)cc3)ccc2[nH]1` [Flubendazol] it was 55.5; in that of `COC(=O)Nc1nc2cc(C(=O)c3ccc(F)cc3)ccc2[nH]1` [Flubendazole (Flutelmium)], 66.8.
The molecule `NC1=N[C@@]2(c3cc(NC(=O)c4ccc(F)cn4)ccc3F)COC[C@H]2CS1` showed a nuclei count of 109.
For the molecule `COC1=C(OC)C(=O)C(C/C=C(\C)CC/C=C(\C)CC/C=C(\C)CC/C=C(\C)CC/C=C(\C)CC/C=C(\C)CC/C=C(\C)CC/C=C(\C)CC/C=C(\C)CCC=C(C)C)=C(C)C1=O` [Coenzyme Q10 (CoQ10)], the nuclei count was 109.
`COc1ccc(COc2cc3oc(=O)c4cc(C(C)O)ccc4c3cc2OC)cc1` (stereo not drawn) [Palomid 529] had a nuclei count of 92.9 ± 14.
In turn, `CC(=O)NCCc1c(Cc2ccccc2)[nH]c2ccccc12` [Luzindole] returned a nuclei count of 106.
Molecule `O=C(O[C@@H]1C[C@@H]2C[C@H]3C[C@H](C1)N2CC3=O)c1c[nH]c2ccccc12` [Dolasetron mesilate] displayed a nuclei count of 97.9.
For the molecule `O=C(O)c1ccccc1Nc1cccc(OCc2ccc3ccccc3n2)c1` [SR 2640 hydrochloride], the nuclei count was found to be 94.8.
The molecule `CC(C)(C)NCC(O)c1ccc(O)c(CO)c1` (stereo not drawn) [Salbutamol] showed a nuclei count of 105.
On to `CCCCC[C@H](O)CC(=O)CCc1ccc(O)c(OC)c1` [Gingerol], for which the nuclei count turned out to be 99.4.
`CCCCC[C@H](O)CC(=O)CCc1ccc(O)c(OC)c1` [6-Gingerol] had a nuclei count of 104.
As for `CO[C@H]1C[C@@H]2CC[C@@H](C)[C@@](O)(O2)C(=O)C(=O)N2CCCC[C@H]2C(=O)O[C@H]([C@H](C)C[C@@H]2CC[C@@H](OP(C)(C)=O)[C@H](OC)C2)CC(=O)[C@H](C)/C=C(\C)[C@@H](O)[C@@H](OC)C(=O)[C@H](C)C[C@H](C)/C=C/C=C/C=C/1C` [Deforolimus (Ridaforolimus)], the nuclei count stood at 93.2.
As to `CO[C@H]1C[C@@H]2CC[C@@H](C)[C@@](O)(O2)C(=O)C(=O)N2CCCC[C@H]2C(=O)O[C@H]([C@H](C)C[C@@H]2CC[C@@H](OP(C)(C)=O)[C@H](OC)C2)CC(=O)[C@H](C)/C=C(\C)[C@@H](O)[C@@H](OC)C(=O)[C@H](C)C[C@H](C)/C=C/C=C/C=C/1C` [Deforolimus (MK-8669)], the nuclei count was found to be 91.7.
`CCn1c(=O)n(C2=C(CO)CN(CC3CCCCCCC3)CC2)c2ccccc21` yielded a nuclei count of 103.
Regarding `Cn1c(=O)c2c(ncn2C)n(C)c1=O` [Caffeine], the nuclei count is 105.4 ± 0.12.
In the case of `CC[C@@H]1C(=O)N(C)c2cnc(Nc3ccc(C(=O)NC4CCN(C)CC4)cc3OC)nc2N1C1CCCC1`, the nuclei count turned out to be 30.6.
In turn, `O=C1CCc2c(ccc3ccccc23)O1` [Splitomicin] returned a nuclei count of 104 ± 5.1.
With `O=C1c2ccccc2C(Cc2ccncc2)(Cc2ccncc2)c2ccccc21` [XE 991 dihydrochloride], the nuclei count came out at 106.
In the case of `Cc1c(OCC(F)(F)F)ccnc1C[S+]([O-])c1nc2ccccc2[nH]1` (stereo not drawn) [Lansoprazole] it was 105.6 ± 0.19; in that of `CCN1CCN(c2cc(-c3ccc(F)cc3)c3c(n2)CCCCCC3)CC1` [Blonanserin (Lonasen)], 98.7.
As to `C#CCN(C)CC1=Cc2ccccc2Oc2ccccc21`, the nuclei count worked out at 107.
In the case of `CNC(=O)CN1CCC(Oc2cc3c(Nc4cccc(Cl)c4F)ncnc3cc2OC)CC1`, the nuclei count was 96.1.
The result for `CCCS(=O)(=O)Nc1ccc(F)c(C(=O)c2c[nH]c3ncc(Cl)cc23)c1F` reads 101; that for `Nc1nc(N)nc(-c2cc(Cl)ccc2Cl)n1` [Irsogladine maleate], 106 ± 5.5.
In the case of `CCN1CCCC1CNC(=O)c1cc(S(=O)(=O)CC)c(N)cc1OC` (stereo not drawn) [Amisulpride] it was 87 ± 19; in that of `COc1cc(N)c(Cl)cc1C(=O)NC1CCN(Cc2ccccc2)CC1` [Clebopride maleate], 105.
Regarding `O=C(Nc1cccc(Cl)c1)Nc1ncc(CCNc2ncnc3ccsc23)s1` [SNS-314 Mesylate], the nuclei count was found to be 48.6.
Regarding `Nc1ncnc2c1c(-c1cccc(OCc3ccccc3)c1)cn2C1CC(CN2CCCC2)C1` (stereo not drawn), the nuclei count is 70.4.
In the case of `COc1ccccc1OCCNCC(O)COc1cccc2[nH]c3ccccc3c12` (stereo not drawn) [Carvedilol] it was 101 ± 3.4.
In the case of `CCC(CC)[C@H](NC(C)=O)[C@@H]1[C@H](O)[C@@H](C(=O)O)C[C@H]1NC(=N)N` [Peramivir  Trihydrate], the nuclei count was 106.
In the case of `COc1cc2c(cc1OC)-c1cc3nc4ccccc4nc3n1C(C)(C)C2` it was 105; in that of `CC(C)c1nc(CN(C)C(=O)N[C@H](C(=O)N[C@@H](Cc2ccccc2)C[C@H](O)[C@H](Cc2ccccc2)NC(=O)OCc2cncs2)C(C)C)cs1` [Ritonavir], 103.
For the molecule `COc1c(O)cc2c(c1O)[C@@H]1O[C@H](CO)[C@@H](O)[C@H](O)[C@H]1OC2=O` [Bergenin (Cuscutin)], the nuclei count worked out at 98.5.
With `CC(C)[C@H]1CC[C@H](C(=O)N[C@H](Cc2ccccc2)C(=O)O)CC1` [Nateglinide (Starlix)], the nuclei count came to 96.1.
The result for `Nc1cccc(-c2cc3c(Oc4cccc(O)c4)ncnc3[nH]2)c1` reads 42.4 and 45.9; that for `COc1ccc(C(C)=O)c(O)c1` [Paeonol], 107.
In turn, `COc1ccc(-n2nc(C(N)=O)c3c2C(=O)N(c2ccc(N4CCCCC4=O)cc2)CC3)cc1` [Apixaban] came in with a nuclei count of 119.
The result for `COc1ccc(CCCOC(Cn2ccnc2)c2ccc(OC)cc2)cc1` (stereo not drawn) reads 56.2 and 54.1; that for `C[C@H]1CC[C@@]2(OC1)O[C@H]1C[C@H]3[C@@H]4CC[C@@H]5C[C@@H](O[C@@H]6O[C@H](CO)[C@H](O)[C@H](O)[C@H]6O[C@@H]6O[C@H](CO)[C@@H](O)[C@H](O)[C@H]6O)CC[C@]5(C)[C@H]4CC[C@]3(C)[C@H]1[C@@H]2C` [Timosaponin A-III], 37.6.
`C[C@@H](O)[C@H]1C(=O)N2C(C(=O)OCOC(=O)C(C)(C)C)=C(SC3CN(C4=NCCS4)C3)[C@H](C)[C@H]12` [Tebipenem pivoxil (L-084)] came in with a nuclei count of 97.3.
The result for `CCCCOc1ccc(OCCCN2CCOCC2)cc1` [Pramoxine hydrochloride] reads 88.4.
`O=C(NCC1CCCCN1)c1cc(OCC(F)(F)F)ccc1OCC(F)(F)F` (stereo not drawn) [Flecainide acetate] gave a nuclei count of 105 ± 7.7.
`CC1CCc2cc(F)cc3c(=O)c(C(=O)O)cn1c23` (stereo not drawn) [Flumequine] showed a nuclei count of 94.8.
The molecule `Cc1nc2c(OCc3ccccc3)cccn2c1CC#N` gave a nuclei count of 99.
In the case of `CCOC(=O)C1=C(C)NC(C)=C(C(=O)OC)C1c1cccc([N+](=O)[O-])c1` (stereo not drawn) [Nitrendipine] it was 101 ± 4.
As for `c1ccc(N2CCN(CCCOc3ccc4c(c3)OCO4)CC2)cc1` [BP 554 maleate], the nuclei count was found to be 97.5.
Turning to `Cc1cc(Cc2cc(C)cc(C(C)(C)C)c2O)c(O)c(C(C)(C)C)c1`, the nuclei count was determined as 96.3.
The molecule `CCn1cc(C(=O)O)c(=O)c2cc(F)c(N3CCNCC3)cc21` [Norfloxacin] registered a nuclei count of 92.5.
With `N[C@@H](C(=O)O)c1ccc(O)c(C(=O)O)c1` [(R)-3-Carboxy-4-hydroxyphenylglycine], the nuclei count came out at 99.9.
As for `O=C(c1ccc(OCCN2CCCCC2)cc1)c1c(-c2ccc(O)cc2)sc2cc(O)ccc12` [Raloxifene hydrochloride], the nuclei count was found to be 105 ± 2.7.
In turn, `CC(C)[C@H](CO)Nc1nc(Nc2cc(N)cc(Cl)c2)c2ncn(C(C)C)c2n1` [Aminopurvalanol A] came in with a nuclei count of 38.4.
The result for `CNC(=O)c1ccc(N2C(=S)N(c3cnc(C#N)c(C(F)(F)F)c3)C(=O)C23CCC3)cc1F` reads 103; that for `COc1cc(C[C@H]2C(=O)OC[C@@H]2Cc2ccc(OC)c(OC)c2)ccc1O` [Arctigenin], 103; that for `NS(=O)(=O)c1cc2c(cc1C(F)(F)F)NC(Cc1ccccc1)NS2(=O)=O` (stereo not drawn) [Bendroflumethiazide], 108.
In the case of `CC(CN1c2ccccc2Sc2ccccc21)N(C)C` (stereo not drawn) [Promethazine hydrochloride] it was 106; in that of `CNC(=O)c1ccccc1Sc1ccc2c(/C=C/c3ccccn3)n[nH]c2c1` [Axitinib], 46.1.
The molecule `CN(C)[C@@H]1CCc2[nH]c3ccc(NC(=O)c4ccc(F)cc4)cc3c2C1` registered a nuclei count of 89.9.
As for `CCOc1cc(N2CCC(O)CC2)ccc1Nc1ncc2c(n1)N(C)c1ccccc1C(=O)N2C`, the nuclei count is 95.5.
Molecule `CC1(C)O[C@@H]2[C@@H](CO[C@@]3(COS(N)(=O)=O)OC(C)(C)O[C@@H]23)O1` [Topiramate] showed a nuclei count of 83.8 ± 1.1.
Consider `CC[C@H](C)[C@H](N)C(=O)N1CCSC1` [P32/98 hemifumarate salt], for which the nuclei count came to 106.
Molecule `COc1cc(NS(=O)(=O)c2ccc(N)cc2)nc(OC)n1` [Sulfadimethoxine] showed a nuclei count of 89.9.
For the molecule `CC[N+](CC)(CC(=O)Nc1c(C)cccc1C)Cc1ccccc1` [Denatonium benzoate], the nuclei count came out at 106.
In the case of `CCNc1nc(Nc2cc(F)c(C(=O)N3CCOCC3)cc2OC)ncc1C(F)(F)F`, the nuclei count was 96.2.
The molecule `CN(C)c1cc(NC(=O)CNC(C)(C)C)c(O)c2c1C[C@H]1C[C@H]3[C@H](N(C)C)C(O)=C(C(N)=O)C(=O)[C@@]3(O)C(O)=C1C2=O` [Tigecycline] displayed a nuclei count of 101.
The result for `O=C1Nc2ccc(I)cc2/C1=C/c1cc(Br)c(O)c(Br)c1` reads 95.8 and 96.4.
`O=C1N=C(O)NC1(c1ccccc1)c1ccccc1` [Phenytoin sodium (Dilantin)] yielded a nuclei count of 99.7.
In turn, `O=C(c1ccc(F)cc1)N1CCC[C@H](c2nc(-c3ccc(F)cc3)no2)C1` came in with a nuclei count of 105.
Consider `Cc1cccc(Nc2ccncc2S(=O)(=O)NC(=O)NC(C)C)c1` [Torsemide], for which the nuclei count was 102.
Turning to `COc1cc2c(cc1OC)-c1c/c(=N\c3c(C)cc(C)cc3C)n(C)c(=O)n1CC2` [Trequinsin hydrochloride], the nuclei count is 96.
